Data taken from the supplement of paper PMC3334620.
Over roughly 33,000 sequences, “E-score (-0.5 to 0.5)” has its median near -0.054; the highest 2% begin near 0.39. The list shows a part of the results.

biological target: Ylr278c (UniProt Q05854); assay: PBM E-score (8-mer binding enrichment) (E-score (-0.5 to 0.5)); higher = stronger / more preferred TF binding; most listed sequences are background and not binding sites; details: protein concentration: 200 nM; construct: GST-DNA-binding domain
Experimental: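 Universal 'all 10-mer' protein binding microarrays (Agilent AMADID 015681) probed with GST-tagged S. cerevisiae TFs (full-length or DBD) made by in vitro transcription/translation (PURExpress), about 100-200 nM. Bound TF was detected with fluorescent anti-GST. Each ungapped 8-mer (which stands for itself and its reverse complement) is scored by the PBM enrichment score (E-score), a modified Wilcoxon-Mann-Whitney statistic from -0.5 to +0.5, computed with the Universal PBM Analysis Suite. Scale: above 0.35 generally sequence-specific binding.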

Row | Sequence | PBM E-score
1 | ACTCGCAT | -0.0232
2 | CTTGGGGA | -0.0557
3 | CCGTAAGG | -0.122
4 | GTTAGATA | -0.246
5 | GGAACCTA | 0.0805
6 | ACTGAATG | 0.0241
7 | CGCCTACG | -0.0671
8 | TGACCAAA | -0.121
9 | AATAATCT | 0.0605
10 | ATTAGGCG | 0.0518
11 | ATGAACGA | -0.166
12 | CACCTCAA | -0.108
13 | ATGACATC | -0.0619
14 | CCCTAGGG | -0.314
15 | TTCAGGAA | -0.0794
16 | CTTGCCAA | -0.243
17 | AAAGACCA | -0.208
18 | GGTGACGA | -0.251
19 | CAGCTCCC | -0.153
20 | GAACCTCC | 0.192
21 | ATTAAACA | -0.193
22 | AATATCTA | -0.248
23 | CGCTGCTC | -0.105
24 | CCTTAATC | -0.00157
25 | AAATTCGC | 0.0526

Row | Sequence | PBM E-score
26 | CTACAATC | -0.0758
27 | CCGACAGG | 0.276
28 | ATCGCGTG | 0.0973
29 | CAATACAG | -0.181
30 | CTTTGGAA | -0.088
31 | CGGATATA | 0.393
32 | CAACGCCC | -0.0163
33 | TAAACAAA | -0.0843
34 | CGGCTTGA | 0.058
35 | CCTTACCA | -0.322
36 | CCAGCACC | -0.116
37 | ACTTAAAG | -0.199
38 | AATGTTAT | -0.153
39 | ACCACCCC | -0.0206
40 | CACCTCTA | -0.0927
41 | CTGTTAAC | 0.0467
42 | AAGGTTAG | -0.253
43 | CGATCAGC | 0.0597
44 | GGCCAGTA | -0.0297
45 | AGATCCCG | 0.31
46 | CAGGGCCC | -0.0214
47 | CGTATTTA | 0.0653
48 | AGGCTACA | -0.324
49 | ACTCTCAA | -0.406
50 | AGAACATC | -0.0671

Row | Sequence | PBM E-score
51 | AATGTGCG | 0.166
52 | ACAAAGGC | -0.14
53 | AACGTGCC | 0.012
54 | GGCACTGA | 0.0515
55 | AGCTTCTG | 0.00784
56 | CTAACTTC | -0.0501
57 | GGACCTCA | -0.0375
58 | GCTTCAAA | 0.00432
59 | ATGAGGGC | 0.0575
60 | AACCTATG | -0.27
61 | CGGTAAGC | 0.221
62 | AGCTTAAA | -0.183
63 | CCGCAAGC | 0.0153
64 | GTCGCGAC | 0.204
65 | CACGTGCA | -0.27
66 | CTTAGCAA | -0.178
67 | ACTGATTC | -0.114
68 | GAAATTCA | 0.0664
69 | CACAGAGC | -0.2
70 | AGATTTTG | -0.176
71 | GACATAAC | 0.179
72 | AGTGTAGG | -0.21
73 | ACTCAAGT | -0.133
74 | GGGCTACA | -0.0376
75 | TGCGGACA | 0.356

Row | Sequence | PBM E-score
76 | AACAACAT | -0.13
77 | GCGCTTAC | 0.144
78 | CACCCGCA | 0.146
79 | CTCCGTGC | 0.416
80 | ACAGGGAC | -0.0416
81 | ATCAACAG | 0.0678
82 | AGATAGAA | -0.00467
83 | TAAACCCA | -0.17
84 | CTTATCGA | -0.0575
85 | AGCTCCAT | -0.0675
86 | GGTATATA | -0.092
87 | ACACTATA | -0.22
88 | CATGAGGC | -0.035
89 | GTCTATAA | -0.139
90 | AAGATAGG | -0.276
91 | AGCATATG | -0.293
92 | ATTGGGGC | 0.0146
93 | AAGGCCCG | 0.128
94 | ACAAATCG | 0.0892
95 | GCGATGCC | 0.0401
96 | GTGAGCAA | -0.151
97 | CCTAGGAC | -0.145
98 | GAGTCAGC | -0.177
99 | CCCCTCAC | -0.0114
100 | GCTTCTGA | 0.0266

Row | Sequence | PBM E-score
101 | AGACATGA | -0.29
102 | GGAACTTA | 0.155
103 | AAGAGCGT | -0.0223
104 | ATTCACAC | -0.111
105 | GCTACGCA | -0.0598
106 | GGCCTCCC | 0.00603
107 | ACTCCCAT | -0.16
108 | AGAATTCA | -0.205
109 | CTTCTGGA | -0.00858
110 | TGCTTCCA | -0.38
111 | AGGGCCAG | -0.235
112 | ACTGCAGT | -0.278
113 | ACGAACAT | 0.0644
114 | CGCTGTAA | -0.00822
115 | ACACATTG | 0.0706
116 | ATTGACTG | -0.19
117 | TTATACAA | 0.0139
118 | ATTTTCGG | 0.376
119 | CCGGGACG | 0.322
120 | CATCTCCA | 0.0295
121 | GGGATTAA | 0.223
122 | ATAAGGAA | -0.248
123 | GTCATCTA | -0.101
124 | GACATGCC | 0.00109
125 | AGAAATCT | 0.0291

Row | Sequence | PBM E-score
126 | AGCCCTAC | -0.066
127 | GTGTTGCA | 0.023
128 | CAATAGCG | 0.0458
129 | CTATTAAC | -0.0715
130 | TGGGAGAA | -0.208
131 | ATCAGCCG | 0.208
132 | ACATCCGC | 0.352
133 | CATCCGAC | 0.289
134 | ACAGGATG | 0.0452
135 | ACAGGAGA | -0.0277
136 | ACTCCCAG | 0.0262
137 | ACAGATGT | -0.119
138 | GCGCGCGA | 0.201
139 | ACTTGGAG | -0.0915
140 | AGTCGACT | -0.0186
141 | ACTATGGC | -0.287
142 | AGGTTTGC | -0.0682
143 | GGTGCGCA | 0.132
144 | AGTGTGGA | -0.0758
145 | ATTCGACG | -0.067
146 | ATACCCAC | 0.101
147 | TATTCAAA | -0.114
148 | GACGAAAC | 0.0422
149 | ACATTCCC | 0.129
150 | GCTTCACC | -0.0695

Row | Sequence | PBM E-score
151 | CTCATCAG | -0.0816
152 | AGGACCGA | 0.0864
153 | CAGCGTGA | -0.284
154 | AGGATTTA | 0.00139
155 | ATGTTTAG | -0.101
156 | TCTCCCAA | -0.00572
157 | AGTGTCAT | -0.146
158 | AAGATAAA | -0.0217
159 | AAGCGGTA | 0.038
160 | ACGCGAGG | -0.0852
161 | CCTCTATC | -0.149
162 | ATCTTGTG | -0.263
163 | AAGGAAGT | 0.0463
164 | CATAACCG | 0.0997
165 | CCCCGGCC | 0.287
166 | ATCCTCAG | 0.0306
167 | CGCCTCGA | -0.0522
168 | AACAAAGC | 0.021
169 | ACGCAAAA | -0.0506
170 | CCCCTACA | -0.101
171 | AGTTTCAT | 0.0398
172 | GCAGCATA | -0.106
